The values below come from the supplement of paper PMC11876631.

± gives the standard deviation of the averaged measurements. Laboratory Escherichia coli strains with one amino-acid change in an essential protein, pooled on minimal glucose agar with carbenicillin or gentamicin at twice the control MIC (plus kanamycin and chloramphenicol for the plasmids), 48 h. Fold change of barcode share against drug-free plates; higher = less susceptible. Active = above 20 in both replicates (the paper's putatively resistant). '<' = one read or none on drug, '>' = one read or none on a drug-free plate. Shares are relative, so most strains fall below 1 when a few take over. Listed are strains with at least 15 reads on both drug-free plates, and hits; most hits rest on fewer reference reads. Replicate rank correlation about 0.5. Edits are read from barcodes. A value given as a limit tells only on which side of the number the result lay.

The target of the data set is Escherichia coli (laboratory strain). Briefly: barcode share on antibiotic plates over drug-free plates; higher = less susceptible. The following applies: antibiotic: gentamicin; 2× MIC (MIC 0.45 µg/mL). Here is the method:
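A pool of E. coli strains, each edited to carry one amino-acid change in an essential protein, was grown for 48 h on minimal glucose agar with or without antibiotic; strain barcodes were sequenced; mean of two replicates.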

B1: ppc V809A (protein)
chain: MNEQYSALRSNVSMLGKVLGETIKDALGEHILERVETIRKLSKSSRAGNDANRQELLTTLQNLSNDELLPVARAFSQFLNLANTAEQYHSISPKGEAASNPEVIARTLRKLKNQPELSEDTIKKAVESLSLELVLTAHPTEITRRTLIHKMVEVNACLKQLDNKDIADYEHNQLMRRLRQLIAQSWHTDEIRKLRPSPVDEAKWGFAVVENSLWQGVPNYLRELNEQLEENLGYKLPVEFVPVRFTSWMGGDRDGNPNVTADITRHVLLLSRWKATDLFLKDIQVLVSELSMVEATPELLALVGEEGAAEPYRYLMKNLRSRLMATQAWLEARLKGEELPKPEGLLTQNEELWEPLYACYQSLQACGMGIIANGDLLDTLRRVKCFGVPLVRIDIRQESTRHTEALGELTRYLGIGDYESWSEADKQAFLIRELNSKRPLLPRNWQPSAETREVLDTCQVIAEAPQGSIAAYVISMAKTPSDVLAVHLLLKEAGIGFAMPVAPLFETLDDLNNANDVMTQLLNIDWYRGLIQGKQMVMIGYSDSAKDAGVMAASWAQYQAQDALIKTCEKAGIELTLFHGRGGSIGRGGAPAHAALLSQPPGSLKGGLRVTEQGEMIRFKYGLPEITVSSLSLYTGAILEANLLPPPEPKESWRRIMDELSVISCDVYRGYVRENKDFVPYFRSATPEQELGKLPLGSRPAKRRPTGGVESLRAIPWIFAWTQNRLMLPAWLGAGTALQKVVEDGKQSELEAMCRDWPFFSTRLGMLEMVFAKADLWLAEYYDQRLVDKALWPLGKELRNLQEEDIKVALAIANDSHLMADLPWIAESIQLRNIYTDPLNVLQAELLHRSRQAEKEGQEPDPRVEQALMVTIAGIAAGMRNTG
With B1, the “fold change of barcode share” value was 0.00862 ± 0.0019.

B2: ppc V809P (protein)
chain: MNEQYSALRSNVSMLGKVLGETIKDALGEHILERVETIRKLSKSSRAGNDANRQELLTTLQNLSNDELLPVARAFSQFLNLANTAEQYHSISPKGEAASNPEVIARTLRKLKNQPELSEDTIKKAVESLSLELVLTAHPTEITRRTLIHKMVEVNACLKQLDNKDIADYEHNQLMRRLRQLIAQSWHTDEIRKLRPSPVDEAKWGFAVVENSLWQGVPNYLRELNEQLEENLGYKLPVEFVPVRFTSWMGGDRDGNPNVTADITRHVLLLSRWKATDLFLKDIQVLVSELSMVEATPELLALVGEEGAAEPYRYLMKNLRSRLMATQAWLEARLKGEELPKPEGLLTQNEELWEPLYACYQSLQACGMGIIANGDLLDTLRRVKCFGVPLVRIDIRQESTRHTEALGELTRYLGIGDYESWSEADKQAFLIRELNSKRPLLPRNWQPSAETREVLDTCQVIAEAPQGSIAAYVISMAKTPSDVLAVHLLLKEAGIGFAMPVAPLFETLDDLNNANDVMTQLLNIDWYRGLIQGKQMVMIGYSDSAKDAGVMAASWAQYQAQDALIKTCEKAGIELTLFHGRGGSIGRGGAPAHAALLSQPPGSLKGGLRVTEQGEMIRFKYGLPEITVSSLSLYTGAILEANLLPPPEPKESWRRIMDELSVISCDVYRGYVRENKDFVPYFRSATPEQELGKLPLGSRPAKRRPTGGVESLRAIPWIFAWTQNRLMLPAWLGAGTALQKVVEDGKQSELEAMCRDWPFFSTRLGMLEMVFAKADLWLAEYYDQRLVDKALWPLGKELRNLQEEDIKVPLAIANDSHLMADLPWIAESIQLRNIYTDPLNVLQAELLHRSRQAEKEGQEPDPRVEQALMVTIAGIAAGMRNTG
Regarding B2, the “fold change of barcode share” value stood at 0.0256 ± 0.014.

B3: plsC F20A (protein)
chain: MLYIFRLIITVIYSILVCVAGSIYCLFSPRNPKHVATFGHMFGRLAPLFGLKVECRKPTDAESYGNAIYIANHQNNYDMVTASNIVQPPTVTVGKKSLLWIPFFGQLYWLTGNLLIDRNNRTKAHGTIAEVVNHFKKRRISIWMFPEGTRSRGRGLLPFKTGAFHAAIAAGVPIIPVCVSTTSNKINLNRLHNGLVIVEMLPPIDVSQYGKDQVRELAAHCRSIMEQKIAELDKEVAEREAAGKV
Turning to B3, the “fold change of barcode share” value is under 0.0196.

B4: plsC I23P (protein)
chain: MLYIFRLIITVIYSILVCVFGSPYCLFSPRNPKHVATFGHMFGRLAPLFGLKVECRKPTDAESYGNAIYIANHQNNYDMVTASNIVQPPTVTVGKKSLLWIPFFGQLYWLTGNLLIDRNNRTKAHGTIAEVVNHFKKRRISIWMFPEGTRSRGRGLLPFKTGAFHAAIAAGVPIIPVCVSTTSNKINLNRLHNGLVIVEMLPPIDVSQYGKDQVRELAAHCRSIMEQKIAELDKEVAEREAAGKV
Take B4: the “fold change of barcode share” value is under 0.0157.

B5: plsC F20W (protein)
chain: MLYIFRLIITVIYSILVCVWGSIYCLFSPRNPKHVATFGHMFGRLAPLFGLKVECRKPTDAESYGNAIYIANHQNNYDMVTASNIVQPPTVTVGKKSLLWIPFFGQLYWLTGNLLIDRNNRTKAHGTIAEVVNHFKKRRISIWMFPEGTRSRGRGLLPFKTGAFHAAIAAGVPIIPVCVSTTSNKINLNRLHNGLVIVEMLPPIDVSQYGKDQVRELAAHCRSIMEQKIAELDKEVAEREAAGKV
As for B5, the “fold change of barcode share” value was found to be 0.014 ± 0.00041.

B6: pssA V346Q (protein)
chain: MLSKFKRNKHQQHLAQLPKISQSVDDVDFFYAPADFRETLLEKIASAKQRICIVALYLEQDDGGKGILNALYEAKRQRPELDVRVLVDWHRAQRGRIGAAASNTNADWYCRMAQENPGVDVPVYGVPINTREALGVLHFKGFIIDDSVLYSGASLNDVYLHQHDKYRYDRYHLIRNRKMSDIMFEWVTQNIMNGRGVNRLDDVNRPKSPEIKNDIRLFRQELRDAAYHFQGDADNDQLSVTPLVGLGKSSLLNKTIFHLMPCAEQKLTICTPYFNLPAILVRNIIQLLREGKKVEIIVGDKTANDFYIPEDEPFKIIGALPYLYEINLRRFLSRLQYYVNTDQLVQRLWKDDDNTYHLKGMWVDDKWMLITGNNLNPRAWRLDLENAILIHDPQLELAPQREKELELIREHTTIVKHYRDLQSIADYPVKVRKLIRRLRRIRIDRLISRIL
With B6, the “fold change of barcode share” value is under 0.0195.
